Several values for one entry are separate records, joined by “and”; a condition that tells them apart may be missing. Equal entries are not always repeated. The campaign covered roughly 420,000 compounds. About 64,000 (15%) were called active. Inconclusive results, whose numbers are uncertain, are shown with a selection of clear calls. Calls come from the whole dose curve; as a rule, active = well fitted inhibition curve with a large enough effect; inconclusive = small, poorly fitted or top-dose-only effect; inactive = flat fitted curve, though single readings scatter. A potency beside an inconclusive call is a rough fit, not a confirmed value.
Experiment: qHTS for Inhibitors of human tyrosyl-DNA phosphodiesterase 1 (TDP1): qHTS in cells in absence of CPT; note: nearly all actives have a fitted effect of over 55% in size
Conditions: DT40 Tdp1-/- hTDP1 cells, no CPT, ATP luminescence, 48 h; activity change, negative = growth inhibition: at 46.2 µM (top of the series) unless noted
How it was run: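 Luminescent ATP content (CellTiter-Glo) served as the growth readout. Knockout chicken DT40 cells expressing human TDP1 were exposed to compounds without camptothecin for a minimum 48 hr at 37 °C.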
In the case of `CC(=O)c1ccc(N2Cc3ccccc3C2)cc1`, the Potency is reported as inconclusive: 16.4 µM [inhibitor, single point].
For `O=C1Nc2ccccc2C1C(C[N+](=O)[O-])c1ccccn1` (stereo not drawn), the Potency was “inactive”.
With `CCN(CC)S(=O)(=O)c1ccc(Cl)c(NC(=O)COc2ccccc2[N+](=O)[O-])c1` the Potency was active: 23.1 µM.
For `CCN1CCC2(CC1)N=C(c1ccc(F)cc1)C(=S)N2C(=O)c1ccc(C)cc1`, the Potency was active: 5.8 µM.
For `CNC[C@@H]1Oc2cc(Br)ccc2S(=O)(=O)N([C@H](C)CO)C[C@@H]1C`, the Potency was inconclusive: 29.1 µM [inhibitor, single point].
With `Cc1ccc(C)c(S(=O)(=O)Nc2ccc(C(=O)NCCCN(C)C)cc2)c1` the Potency was inconclusive: 25.9 µM [inhibitor, single point].
For `Cc1ccc(C(C)C)c(OCCCCN2CCNCC2)c1`, the Potency was active: 16.4 µM.
With `COc1ccccc1C1=NOC(C(=O)N2CCN(C(=O)c3ccco3)CC2)C1` (stereo not drawn) the Potency was “inactive”.
With `COc1cc2c(cc1OC)CN(C(=O)CN1CCN(S(=O)(=O)c3ccc(C)c(C)c3)CC1)CC2` the Potency was active: 13 µM.
For `Cc1ccc(NC(=O)CCCn2c(=O)c3cccn3c3ccccc32)c(C)c1`, the Potency was active: 14.6 µM.
In the case of `CCC(C)CN1C(=O)CSCC1(C)C(=O)NC(C)C` (stereo not drawn), the Potency is reported as “inactive”.
With `CCc1noc(-c2ccc(NCc3ccccc3)c([N+](=O)[O-])c2)n1` the Potency was active: 18.4 µM.
For `COc1cc(Cl)ccc1OCc1cc(C(=O)N(C)C2CC(C)(C)NC(C)(C)C2)no1`, the Potency was inconclusive: 20.6 µM [inhibitor, single point].
With `Cc1ccc(Oc2nc(CN3CCOCC3)nc3sc4c(c23)CCC(C)C4)cc1C` (stereo not drawn) the Potency was inconclusive: 29.1 µM [inhibitor, single point].
With `O=C(COC(=O)c1ccc(S(=O)(=O)N2CCCC2)cc1)Nc1ccc(N2CCOCC2)cc1` the Potency was inconclusive: 20.6 µM [inhibitor, single point].
With `Cc1ccc(C(=O)NCC(c2ccc3c(c2)OCO3)N2CCN(C)CC2)cc1C` (stereo not drawn) the Potency was “inactive”.
In the case of `NC(=S)N/N=C/c1ccccc1O`, the Potency is reported as inconclusive: 1.46 µM [inhibitor, full curve].
For `O=C1C=C(c2cc(F)ccc2F)C[C@@H](c2ccc(F)cc2)C1`, the Potency was “inactive”.
In the case of `CCN(C(=O)COC(=O)/C=C/c1ccco1)C1CCCCC1`, the Potency is reported as “inactive”.
In the case of `Cc1ccc(-c2csc(NC(=O)c3cccc(S(=O)(=O)N4CCN(C)CC4)c3)n2)cc1`, the Potency is reported as active: 18.4 µM.
With `COc1ccccc1CN1CCCC2(CCN(S(C)(=O)=O)CC2)C1` the Potency was “inactive”.
In the case of `O=C(Cc1ccc(Cl)c(Cl)c1)Nc1ccccc1N1CCOCC1`, the Potency is reported as inconclusive: 18.4 µM [inhibitor, single point].
In the case of `CCOc1cc(C(=O)NCCc2csc3nc(-c4ccccc4F)nn23)cc(OCC)c1OCC`, the Potency is reported as inconclusive: 18.4 µM [inhibitor, single point].
In the case of `O=C(Nc1ccc(CN2CCCCC2)cc1)c1cccc(Br)c1`, the Potency is reported as inconclusive: 29.1 µM [inhibitor, single point].
For `O=C(NC1CCCC1)C(c1ccc(F)cc1)N(C(=O)c1csnn1)C1CCCC1` (stereo not drawn), the Potency was “inactive”.
With `Cc1ccc(-c2cc(C(=O)Nc3nccs3)c3ccccc3n2)o1` the Potency was inconclusive: 25.9 µM [inhibitor, single point].
In the case of `COc1ccc2c(c1)c(=O)cc(C)n2CC(=O)NCc1ccco1`, the Potency is reported as inconclusive: 20.6 µM [inhibitor, partial curve].
With `COc1ccc(F)cc1S(=O)(=O)NCC(c1ccco1)S(=O)(=O)c1ccc(F)cc1` (stereo not drawn) the Potency was inconclusive: 23.1 µM [inhibitor, partial curve].
For `CCOCCCNc1nc(-c2ccccc2)nc2ccccc12`, the Potency was active: 14.6 µM.
In the case of `Clc1ccc(-n2cnnn2)cc1`, the activity change, negative = growth inhibition is reported as inconclusive: -13.4% [inhibitor].
For `NC(=O)N/N=C(/CCCCCC/C(=N\NC(N)=O)c1ccccc1)c1ccccc1`, the Potency was inconclusive: 23.1 µM [inhibitor, single point].
With `COc1cc(C(=O)OCC(=O)N2CCCCC2C)ccc1OCc1c(C)noc1C` (stereo not drawn) the activity change, negative = growth inhibition was inconclusive: -30.1% [inhibitor].
With `O=C(CCC1CCCN(Cc2cccc(Cl)c2)C1)NCc1ccccc1F` (stereo not drawn) the Potency was inconclusive: 20.6 µM [inhibitor, single point].
For `N=c1c(C(=O)NCC2CCCO2)cc2c(=O)n3ccccc3nc2n1CCCO` (stereo not drawn), the Potency was inconclusive: 23.1 µM [inhibitor, partial curve, poor fit].
For `CCOc1ccc(N=C(/C(C(=O)C(=O)N2CCOCC2)=C(\O)c2ccccc2)c2ccccc2)cc1`, the Potency was “inactive”.
In the case of `O=C(Nc1ccc2ccccc2c1[N+](=O)[O-])c1ccccc1`, the Potency is reported as inconclusive: 8.2 µM [inhibitor, partial curve, poor fit].
For `Cc1cc(C(F)F)n2nc(C(=O)Nc3cccc(Cl)c3C)nc2n1`, the Potency was “inactive”.
With `COc1ccc(NC(=S)NC(=O)Cc2ccccc2)cc1` the Potency was “inactive”.
In the case of `CCOC(=O)c1ccc(N2C(=O)CC(C(=O)OC)=C2C)cc1`, the Potency is reported as inconclusive: 32.6 µM [inhibitor, single point].
In the case of `CC(C)(CNC(=O)c1ccc(-c2ccccc2Cl)o1)N1CCOCC1`, the Potency is reported as inconclusive: 13 µM [inhibitor, partial curve].
With `Cc1nn(CCCC(=O)NCCc2ccc(Cl)cc2)c(=O)c2c1sc1ccccc12` the Potency was inconclusive: 29.1 µM [inhibitor, single point].
With `COC(=O)C[C@@H]1C=C[C@@H](NC(=O)CN(C)C)[C@@H](CO)O1` the Potency was “inactive”.
In the case of `COc1cc([N+](=O)[O-])ccc1-c1ccc(/C=C2\C(=O)ON=C2c2ccccc2)o1`, the Potency is reported as active: 9.2 µM.
With `Fc1ccccc1CSc1ccc(-c2ccco2)nn1` the Potency was inconclusive: 20.6 µM [inhibitor, partial curve].
For `COc1ccc2nc(N3CCC(O)CC3)c(C#N)cc2c1`, the activity change, negative = growth inhibition was inconclusive: -32.4% [inhibitor].
With `O=C(CN1CCN(c2ccc(F)cc2)CC1)N1CCC(Cc2ccccc2)CC1` the Potency was inconclusive: 14.6 µM [inhibitor, partial curve].
For `CS(=O)(=O)N1CCN(c2ccc(NC(=O)c3ccc(-c4ccc(Cl)cc4)o3)cc2)CC1`, the Potency was inconclusive: 8.2 µM [inhibitor, partial curve].
With `CC(C)OCCOc1ccc2oc(-c3ccco3)cc(=O)c2c1` the Potency was inconclusive: 18.4 µM [inhibitor, single point].
For `COc1ccc(C(=O)N2CCCC(Nc3ccc(C)c(C)c3)C2)c(OC)n1` (stereo not drawn), the Potency was “inactive”.
In the case of `O=C(Nc1ccc(-n2nncc2-c2ccccc2)cc1)c1cccc(F)c1`, the Potency is reported as inconclusive: 20.6 µM [inhibitor, partial curve].
In the case of `Cc1cc(Cl)cc(Cl)c1OCC(=O)NCc1ccco1`, the Potency is reported as active: 18.4 µM.
In the case of `Cn1c(SCC(=O)NCc2ccco2)nnc1-c1cccs1`, the Potency is reported as “inactive”.
For `Cn1ncc2c(NCc3ccccc3Cl)nc(NCCO)nc21`, the Potency was inconclusive: 29.1 µM [inhibitor, single point].
In the case of `Cc1c(C(=O)N2CC3CCC2C3)sc2ncnc(NCc3ccco3)c12` (stereo not drawn), the Potency is reported as “inactive”.
With `CCO[C@H]1OC(C(=O)N2CCOCC2)=C[C@@H](C2CC2)[C@@H]1CCCO` the Potency was inconclusive: 1.64 µM [inhibitor, full curve, poor fit].
For `CC(C)(C)c1ccc(S(=O)(=O)NCCOCC(F)(F)C(F)F)cc1`, the Potency was inconclusive: 29.1 µM [inhibitor, single point].
With `COc1ccc(C(=O)/C=C/c2ccc(O)cc2)c2c1CC(O)C(C)(C)O2` (stereo not drawn) the Potency was active: 16.4 µM.
With `CC(C)(C)OC(=O)N1CCC(C(=O)Nc2cccc(C(=O)NCc3ccccc3)c2)CC1` the Potency was active: 20.6 µM.
With `Cn1nc(C(=O)NNc2c(F)c(F)cc(F)c2F)c2ccccc2c1=O` the Potency was active: 1.46 µM.
For `CCCc1[nH][nH]c(=O)c1C(c1cccc(Cl)c1)C(C#N)C#N` (stereo not drawn), the Potency was inconclusive: 32.6 µM [inhibitor, single point].
For `O=C(Nc1cnc2ccccc2c1)c1cccc(-n2cnnn2)c1`, the Potency was inconclusive: 23.1 µM [inhibitor, single point].
In the case of `COC(=O)CSc1nnc(-c2sc3cc(OC)ccc3c2Cl)n1C`, the Potency is reported as “inactive”.
For `CC(=O)N1CCN(C(=O)/C(C#N)=C/c2ccc3c(c2)OCO3)CC1`, the Potency was “inactive”.
For `O=C(Nc1ccc2c(c1)OCO2)C1CC(c2c(F)cccc2Cl)=NO1` (stereo not drawn), the Potency was inconclusive: 9.2 µM [inhibitor, partial curve].
With `Cn1nc(C(=O)NCc2cccc(Cl)c2)c2c1-c1ccccc1S(=O)(=O)C2` the Potency was inconclusive: 23.1 µM [inhibitor, single point] and inconclusive: 29.1 µM [inhibitor, single point].
In the case of `N#CC1=C(N)N2C(=C(C#N)C13CCCC3)Nc1ccccc12`, the Potency is reported as inconclusive: 16.4 µM [inhibitor, partial curve].
For `COc1cc(C#Cc2c(-c3cncn3C)n(C)c3ccc(Br)cc23)cc(OC)c1`, the Potency was active: 18.4 µM.
In the case of `O=C(CN1CCCN(Cc2ccc(F)cc2Cl)C1=O)NCc1ccccc1`, the Potency is reported as inconclusive: 18.4 µM [inhibitor, single point].
In the case of `N#CC(C(=O)OCc1ccccc1)c1nc2ccccc2nc1N1CCOCC1` (stereo not drawn), the Potency is reported as inconclusive: 4.11 µM [inhibitor, partial curve].
For `Cc1nc2ccccc2n2c(-c3ccccc3)c3c(=O)n(C)c(=O)n(C)c3c12`, the Potency was active: 14.6 µM.
With `O=S(=O)(N1CCOCC1)N1CCCN(S(=O)(=O)N2CCOCC2)CC1` the Potency was “inactive”.
With `Cc1c(C(=O)NCc2ccccn2)sc2nc(-c3ccc(F)cc3)cn12` the Potency was inconclusive: 18.4 µM [inhibitor, single point].
For `O=C(CN1CCN(c2ccc(Cl)cc2)CC1)Nc1cccc(F)c1`, the Potency was inconclusive: 23.1 µM [inhibitor, single point].
% is set by controls: 0 for no effect and ±100 for the full control effect; potency is the fitted concentration of half-maximal effect; tags give direction and shape of the fitted curve.
